{
  "source": "PubChem BioAssay AID504706",
  "about": "(National Center for Advancing Translational Sciences (NCATS), 2011)",
  "note": "The whole screen tested about 320,000 compounds, of which about 200 (0.062%) were called active. The inconclusive results got no clear call from the source; some entries with a clear call stand among them for comparison. The call rests on the fitted dose curve; in most records, active means well fitted activation curve with a large enough effect; inconclusive means small, poorly fitted or top-dose-only effect; inactive means no such curve, though single readings can be large or run the other way. No potency is given beside an inconclusive call; the fits are too rough. Potency means the concentration at half of the fitted maximal effect; tags describe the fitted curve by direction and shape.",
  "data": [
    {"assay": "qHTS assay for re-activators of p53 using a Luc reporter; further: nearly all actives have a fitted effect of over 45% in size; on activity change, positive = activation: % of control where 0% means no effect", "details": "H1299 p53-A138V BP100-luciferase reporter, luminescence, 24 h; series mostly up to 92.2 µM; activity change, positive = activation: at the top concentration", "in_short": "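H1299 (p53-null), stable ts p53-A138V + BP100-Luc; 1000 cells/well, Opti-MEM/10% FBS; cpd 4 pt, 1:5; 24 h, 37 deg C, 5% CO2; detection reagent 10 min RT; luminescence.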", "values": [
      {"smiles": "CC(C)c1ccc(CNNC(=O)c2ccccc2)cc1", "Potency": "inconclusive [activator, full curve]"},
      {"smiles": "Cc1ccc(OCC(=O)NNC(=S)NC(=O)C(C)(C)C)c(Br)c1", "Potency": "inconclusive [activator, partial curve, poor fit]"},
      {"smiles": "Cc1ccc2nc(NC(=S)NC(=O)c3ccco3)sc2c1", "Potency": "inconclusive [activator, partial curve, poor fit]"},
      {"smiles": "COCCNC(=S)NN=C1CCCCC1", "activity change, positive = activation": "inactive: -3.36%"},
      {"smiles": "COc1ccccc1NC(c1cccnc1)c1ccc2cccnc2c1O", "note": "(stereo unspecified)", "Potency": "inconclusive [activator, partial curve, poor fit]"},
      {"smiles": "Cc1nc(SCC(=O)Nc2ccc(S(=O)(=O)N3CCOCC3)cc2)c2c(C)c(C)sc2n1", "activity change, positive = activation": "inactive: -15.1%"},
      {"smiles": "CC1(C)CC(c2nc(-c3ccccc3)cs2)CCS1", "note": "(stereo unspecified)", "Potency": "inconclusive [activator, partial curve, poor fit]"},
      {"smiles": "Cn1cc([N+](=O)[O-])c(C(=O)Nc2ccc(-c3nc4ccccc4[nH]3)cc2)n1", "Potency": "inconclusive [activator, full curve, poor fit]"},
      {"smiles": "CC(/C=C/c1ccccc1)=N/O", "Potency": "inconclusive [activator, partial curve, poor fit]"},
      {"smiles": "O=C(Nc1cc2c(cc1Cl)OCCCO2)c1ccccc1", "Potency": "inconclusive [activator, partial curve, poor fit]"},
      {"smiles": "Cc1cc(C)n2nc(SC(C)C(=O)N3CC(C)OC(C)C3)nc2n1", "note": "(stereo unspecified)", "Potency": "inconclusive [activator, single point]"},
      {"smiles": "Cc1ccc(SCCCCN2CCOCC2)cc1", "Potency": "inconclusive [activator, single point]"},
      {"smiles": "O=C1/C(=C/c2cccs2)COc2ccccc21", "Potency": "inconclusive [activator, partial curve, poor fit]"},
      {"smiles": "CCOC(=O)N/N=C/c1ccccc1OCc1ccc(Cl)cc1", "Potency": "inconclusive [activator, partial curve, poor fit]"},
      {"smiles": "COc1ccc(O)c(/C=C(\\C#N)C(=O)Nc2cccnc2)c1", "Potency": "inconclusive [activator, full curve, poor fit]"},
      {"smiles": "C=COC(=O)CSc1nc(-c2cccs2)ccc1C#N", "Potency": "inconclusive [activator, partial curve, poor fit]"},
      {"smiles": "Cc1[nH]c2ccc(C(=O)NCc3ccccn3)cc2c1C", "Potency": "inconclusive [activator, partial curve, poor fit]"},
      {"smiles": "O=C(Nc1ccsc1C(=O)O)c1ccccc1", "Potency": "inconclusive [activator, full curve, poor fit]"},
      {"smiles": "Cc1c(C(=O)Nc2nc3ccccc3[nH]2)oc2c(Cl)cccc12", "Potency": "inconclusive [activator, full curve, poor fit]"},
      {"smiles": "Fc1ccccc1Nc1nc2c(s1)CCc1ccccc1-2", "Potency": "inconclusive [activator, full curve, poor fit]"},
      {"smiles": "O=C(CSC(=S)N1CCCC1)c1ccccc1", "Potency": "inconclusive [activator, partial curve, poor fit]"},
      {"smiles": "CCOC(=O)Nc1ccc(C(N)=O)cc1", "Potency": "inconclusive [activator, single point]"},
      {"smiles": "CCc1ccc(O)c(N=Cc2cccc(C)c2O)c1", "Potency": "inconclusive [activator, partial curve, poor fit]"},
      {"smiles": "CN(CCC#N)C(=O)COC(=O)c1c2c(nc3ccccc13)/C(=C/c1ccco1)CC2", "Potency": "inconclusive [activator, partial curve, poor fit]"},
      {"smiles": "O=C(c1cc(F)c(F)c(F)c1F)N1CCN(C(=O)C2CCCO2)CC1", "note": "(stereo unspecified)", "Potency": "inconclusive [activator, single point]"},
      {"smiles": "CCOc1ccc2nc(NC(=O)c3ccoc3C)sc2c1", "Potency": "inconclusive [activator, partial curve, poor fit]"},
      {"smiles": "Cc1ccc2nc(NC(=O)c3ccc(OCC4CCCO4)cc3)sc2c1", "note": "(stereo unspecified)", "Potency": "inconclusive [activator, partial curve, poor fit]"},
      {"smiles": "CCOC(=O)C(=O)N=Nc1c(O)[nH]c2ccccc12", "activity change, positive = activation": "inactive: -0.86%"},
      {"smiles": "CCOc1ccccc1CSc1nc2ccccc2[nH]1", "activity change, positive = activation": "inactive: 3.35%"},
      {"smiles": "C/C(=N/NC(=O)c1ccoc1C)c1ccc(NC(=O)c2ccncc2)cc1", "Potency": "inconclusive [activator, partial curve, poor fit]"},
      {"smiles": "S=C(c1ccccc1)N1CCCC1", "Potency": "inconclusive [activator, single point]"},
      {"smiles": "Cc1ccc(C)c(CS(=O)(=O)c2cn(CC(=O)N3CCC(C)CC3)c3ccccc23)c1", "Potency": "inconclusive [activator, single point]"},
      {"smiles": "COc1ccc(CCNC(=O)c2ccc3c(c2)NC(=O)C(CSCc2cc(C)ccc2C)N3)cc1OC", "note": "(stereo unspecified)", "Potency": "inconclusive [activator, partial curve, poor fit]"},
      {"smiles": "OC[C@@H]1[C@@H](c2ccc(F)cc2)C(c2ccccc2)=NN1c1ccccc1", "activity change, positive = activation": "inactive: -0.578%"},
      {"smiles": "Cc1cccc(-c2nnc(NC(=O)c3ccco3)s2)c1", "Potency": "inconclusive [activator, single point]"},
      {"smiles": "COC(=O)C(Cc1ccc(OC(=O)c2ccccc2Cl)cc1)N1Cc2ccccc2C1=O", "note": "(stereo unspecified)", "Potency": "inconclusive [activator, partial curve, poor fit]"},
      {"smiles": "O=[N+]([O-])c1ccccc1N/N=C/c1cccc(O)c1O", "Potency": "inconclusive [activator, full curve, poor fit]"},
      {"smiles": "O=C(NCC1CCCN1S(=O)(=O)c1cccs1)c1ccc(Cl)cc1", "note": "(stereo unspecified)", "activity change, positive = activation": "inactive: -4.42%"},
      {"smiles": "CN(C)CCSc1nnc(-c2ccccc2)o1", "Potency": "inconclusive [activator, single point]"},
      {"smiles": "COc1ccccc1OCCn1cc(/C=N/NC(=O)c2ccncc2)c2ccccc21", "activity change, positive = activation": "inactive: -2.46%"},
      {"smiles": "CC1CCOC(c2coc3ccccc3c2=O)O1", "note": "(stereo unspecified)", "Potency": "inconclusive [activator, partial curve, poor fit]"},
      {"smiles": "N#Cc1cccc(NC(=O)COC(=O)Cn2nc(-c3ccccc3)oc2=O)c1", "activity change, positive = activation": "inactive: 1.85%"},
      {"smiles": "O=c1[nH]c(COc2ccc(Cl)cc2Cl)nc2ccccc12", "Potency": "inconclusive [activator, partial curve, poor fit]"},
      {"smiles": "Cc1csc(CNc2ncnc3ccc(-c4ccc5c(c4)OCCO5)cc23)c1", "activity change, positive = activation": "inactive: -4.92%"},
      {"smiles": "CNc1nnc(-c2cc3ccccc3oc2=O)s1", "Potency": "inconclusive [activator, partial curve, poor fit]"},
      {"smiles": "COC(=O)c1ccc(NC(=S)NC(=O)c2cc(-c3ccccc3)nc3ccccc23)cc1", "activity change, positive = activation": "inactive: -1.37%"},
      {"smiles": "COC(=O)c1ccc2c(c1)C(=O)/C(=C/c1ccc(O)cc1)O2", "Potency": "inconclusive [activator, partial curve, poor fit]"},
      {"smiles": "O=C(NCc1cccs1)c1cc2c(s1)-c1ccccc1OC2", "Potency": "inconclusive [activator, single point]"},
      {"smiles": "Cc1nn(-c2ccc(N3CCCCC3)nn2)c(C)c1CCC(=O)Nc1ccccc1F", "activity change, positive = activation": "inactive: 6.27%"},
      {"smiles": "COc1cc(CN(C)c2ncnc3sccc23)ccc1OC(F)F", "activity change, positive = activation": "inactive: -0.312%"},
      {"smiles": "COc1cc(C2=NOC(C(=O)Nc3ccc(C(C)=O)cc3)C2)cc(OC)c1OC", "note": "(stereo unspecified)", "Potency": "inconclusive [activator, partial curve, poor fit]"},
      {"smiles": "O=C1Nc2ccccc2C1C(C[N+](=O)[O-])c1ccccc1", "note": "(stereo unspecified)", "activity change, positive = activation": "inactive: -5.41%"},
      {"smiles": "CS(=O)(=O)N1CCCC(c2nc(-c3ccc(S(=O)(=O)NCc4ccccc4)cc3)no2)C1", "note": "(stereo unspecified)", "activity change, positive = activation": "inactive: 1.93%"},
      {"smiles": "O=C(CSc1cc(Cl)ccc1Cl)NC1CCCc2ccccc21", "note": "(stereo unspecified)", "activity change, positive = activation": "inactive: -8.44%"},
      {"smiles": "COc1ccc(/C=N/Nc2nc(N3CCCC3)nc(N3CCCC3)n2)c(OC)c1OC", "activity change, positive = activation": "inactive: 1.3%"},
      {"smiles": "CCC1CCc2sc(C(=O)NCc3ccccn3)cc2C1", "note": "(stereo unspecified)", "Potency": "inconclusive [activator, single point]"},
      {"smiles": "Clc1ccc(C[n+]2cc(-c3ccccc3)n3c2CCC3)cc1Cl", "activity change, positive = activation": "inactive: 13.4%"},
      {"smiles": "CCn1c(/C(C#N)=N/O)nc2ccccc21", "activity change, positive = activation": "inactive: -6.87%"},
      {"smiles": "Nc1c(Cl)cc(C2=NCCn3c2c2ccc([N+](=O)[O-])cc2[n+]3[O-])cc1Cl", "Potency": "inconclusive [activator, single point]"},
      {"smiles": "CC(CCc1ccccc1)N1CCN(C)CC1", "note": "(stereo unspecified)", "activity change, positive = activation": "inactive: -48.2%"},
      {"smiles": "CCOc1ccc(/C=N/Nc2nc(C)cs2)c(O)c1", "Potency": "inconclusive [activator, full curve, poor fit]"},
      {"smiles": "Cc1ccc(C)c(N2CCN(C(=O)c3csc4ccccc34)CC2)c1", "activity change, positive = activation": "inactive: 33%"},
      {"smiles": "COc1ccccc1-c1cc(C(F)(F)F)nc(S(=O)(=O)CCCC(=O)NC(C)C)n1", "activity change, positive = activation": "inactive: -9.09%"},
      {"smiles": "Cc1ccc(/C=C/C(=O)Nc2ccc(N(C)C)cc2)o1", "Potency": "inconclusive [activator, full curve, poor fit]"},
      {"smiles": "CCN1CCN(c2ccc(S(=O)(=O)N3CCCCC3)cc2NC(=O)COc2ccc(F)cc2Cl)CC1", "Potency": "inconclusive [activator, single point]"},
      {"smiles": "S=C(Nc1ccc(Cl)c(Cl)c1)NN1CCOCC1", "activity change, positive = activation": "inactive: -9.78%"},
      {"smiles": "Cc1cccc(Cn2c(NCCO)nc3c2c(=O)n(C)c(=O)n3C)c1", "activity change, positive = activation": "inactive: -3.63%"},
      {"smiles": "C=CCn1c(NCc2cc(Cl)ccc2O)nc2ccccc21", "Potency": "inconclusive [activator, single point]"},
      {"smiles": "Cc1ccc(N(C(=O)Cc2cccs2)C(C(=O)NC2CCCCC2)c2ccccn2)cc1C", "note": "(stereo unspecified)", "Potency": "inconclusive [activator, single point]"},
      {"smiles": "Cc1ccc(NC(=O)CNc2ccccc2N2CCCC2=O)cc1S(=O)(=O)N1CCOCC1", "activity change, positive = activation": "inactive: -6.37%"},
      {"smiles": "O=C(/C=C/c1ccccc1)OCC(=O)N1CCCC1", "Potency": "inconclusive [activator, partial curve, poor fit]"}
    ]}
  ]
}
